# Experimental data taken from article PMC12040169 (PLOS Biology, 2025).
# The list shows a part of the results.
# Test system: T1, C. trachomatis L2/434/Bu expressing GFP (CTL2-GFP)
# T1 construct: L2/434/Bu GFP intracellular growth in HeLa cells
# Design: species or system HeLa; C. trachomatis total inclusion area by high-content imaging, normalised to DMSO
# Details: total inclusion area; 28.5 h, 10 µM; inhibitor
# Procedure, shortened: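 High-content imaging followed the bulk GFP/resorufin measurement: fixed, Hoechst-stained cells were scored for GFP inclusions and host nuclei per well. Total inclusion area and count served as growth proxies, nuclei number as the viability proxy. MIC calculation matched the bulk assay.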
row,Structure (SMILES),% of control remaining
1,Cc1ccc(S(=O)(=O)Oc2cccc(C(c3c(C)n[nH]c3O)c3c(C)n[nH]c3O)c2)cc1 [CBK265016],100.215
2,O=C(CSc1ncnc2ccccc12)N(Cc1ccccc1F)C1CC1 [CBK295610],89.8022
3,O=C(Cn1ccc2ccnc(-c3cccs3)c21)N1CCC(O)CC1 [CBK284736],105.492
4,[O-][n+]1c2c([n+]([O-])c3c1CCCC3)CCCCC2 [CBK263586],106.404
5,O=C(NCCN1CCOCC1)C1CCN(Cc2ccccc2O)CC1 [CBK264324],102.991
6,CCOC(=O)Cc1csc(SCC(=O)N2CCc3ccccc32)n1 [CBK306190],58.675
7,O=C(NCc1ccncc1)c1nccnc1-c1ccc(COc2ccccc2)cc1 [CBK050836],94.2144
8,CN(C)CCCNC(=O)c1cc(-c2ccc(Cl)cc2)[nH]n1 [CBK116564T],108.054
9,CS(=O)(=O)N1CC[C@H](c2nc3cc(Cl)ccc3o2)C1 [CBK289370],91.3435
10,O=c1oc2ccc(Cl)cc2n1C1CCN(Cc2ccco2)CC1 [CBK284342],74.1611
11,COc1ccccc1N1CCN(c2nccc3sc(S(=O)(=O)NCc4ccc(C(F)(F)F)c(F)c4)cc23)CC1 [CBK038270C],91.4125
12,N#Cc1cccc(CN2CCCC3(CCN(C(=O)c4cc(F)c(F)cc4F)C3)C2)c1 (stereo not shown) [CBK131993],91.2913
13,C=CCn1c(Cc2csc(NC(=O)c3ccc([N+](=O)[O-])c(C)c3)n2)n[nH]c1=S [CBK295323],116.451
14,O=C(O)c1ccc(-c2ccc(/C=C/c3nc(O)c([N+](=O)[O-])c(=O)[nH]3)o2)cc1Cl [CBK267354],117.054
15,Nc1ncc(-c2cccc(/C=C/C(=O)O)c2)nc1NCCCO [CBK063887],78.4905
16,COc1cccc2sc(Nc3nc4ccc(S(C)(=O)=O)cc4s3)nc12 [CBK287472],63.6878
17,Cc1cc(Cn2ccc(C(F)(F)F)n2)c(C)c(-c2c(C#N)c(N)nc3c2CCCCC3)c1 [CBK267928],97.5616
18,Cc1noc(C)c1NC(=O)c1cn(C)c2ccccc12 [CBK200312],114.358
19,CC1CCCN(Cc2nc3c([nH]2)c(=O)n(C)c(=O)n3C)C1 (stereo not shown) [CBK306054],40.7925
20,C/C(=N\NC(=O)CNC(=O)c1ccc(Br)cc1)c1ccccc1 [CBK262020],103.478
21,CS(=O)(=O)c1ccc(-c2cccc(COC3CCN(C(=O)Cc4cccc5ccccc45)CC3)c2)cc1 [CBK149510],81.2507
22,CCNC(=O)N1CC2(CCN(Cc3ccc4ccccc4c3)CC2)c2ccccc21 [CBK126696],96.2553
23,O=C(c1ccccc1)c1ccc(OCCO)cc1 [CBK000725],85.4059
24,Cc1occc1SCC(=O)Nc1ccc(CN2CCOCC2)cc1 [CBK306453],80.9795
25,O=C1S/C(=C\c2ccc(O)c([N+](=O)[O-])c2)C(=O)N1Cc1ccc(F)cc1 [CBK102928],99.4488
26,CCCN1CCC(CNC(=O)c2cnn(-c3ccc(F)cc3)c2)CC1 [CBK282466],93.3993
27,COCCN(Cc1nccs1)C(=O)C1CCc2nn(C)c(=O)n2C1 (stereo not shown) [CBK306506],94.44

row,Structure (SMILES),% of control remaining
1,Nc1ncc(-c2ccoc2)nc1Nc1ccc2[nH]ccc2c1 [CBK063868],108.021
2,COc1ccc(C2SCCCS2)cc1C(C)(C)C [CBK018886],105.644
3,Cc1cc(C)n(-c2nc3cc(Cl)ccc3nc2NCc2ccc3c(c2)OCO3)n1 [CBK268482],86.659
4,Cc1[nH]c2cccc(C(=O)N3CCCCC3CCNC(=O)c3ccccc3)c2c1C (stereo not shown) [CBK285976],62.4322
5,Cn1cncc1C(=O)NC1Cc2ccccc2C1 [CBK200362],111.427
6,CC(NC(=O)/C(=C\c1ccc(Cl)cc1)NC(=O)c1ccco1)C(=O)O (stereo not shown) [CBK263617],97.6232
7,Cc1ncsc1CCOc1nccnc1N1CCCC1 [CBK115752],75.5201
8,COc1cccc(-c2ccc(C(=O)NCCNC(C)=O)c(N3CCOCC3)n2)c1 [CBK076465],96.4428
9,CCc1nnc(NC(=O)c2cc(OC)c(OC)c(OC)c2)s1 [CBK058342],62.5224
10,O=C1CC(C(=O)N2CCN(C(=O)c3ccco3)CC2)c2ccccc21 (stereo not shown) [CBK144464],101.287
11,O=C(CSc1ncccn1)Nc1sc2c(c1C(=O)Nc1ccccc1)CCCC2 [CBK265939],66.7421
12,CC(=O)N(C)Cc1cccc(Nc2ncnc3c2cnn3CCO)c1 [CBK305979],69.0386
13,CCc1nc2ccc(C(=O)NCCCN3CCCC3=O)cn2c1N(C)C(=O)COc1ccccc1 [CBK145855],98.1691
14,COc1ccc(C(=O)Nc2ccccc2)cc1NC(=O)c1cc(C(F)(F)F)cc(C(F)(F)F)c1 [CBK263465],92.6103
15,O=C(NCCN1CCCC1)c1ccc2nc[nH]c2c1 [CBK153311],109.549
16,COc1cccc(CN2CCC3(C2)c2[nH]c4c(C)cccc4c2CCN3C(C)=O)c1 (stereo not shown) [CBK039662],68.9502
17,Cn1c(C(=O)N2CCc3ccccc32)cc2ccccc21 [CBK200406],75.8361
18,Nc1ncc(-c2cccs2)nc1-c1ccc(F)c(Cl)c1 [CBK063990],66.8912
19,N=c1n(CC(=O)c2ccc(Br)s2)c2ccccc2n1Cc1ccccc1 [CBK262482B],95.7783
20,NC(=O)c1ccccc1NC(=O)C1CCC(C(=O)Nc2ccccc2C(N)=O)CC1 (stereo not shown) [CBK268716],82.5438
21,O=C(O)CNC(=O)CNC(=O)Cn1c(-c2ccccc2)cc2ccccc21 [CBK286550],76.9298
22,COc1ccc(NS(=O)(=O)c2cc(C(=O)O)sc2Br)cn1 [CBK297943],65.0908
23,Nc1nc(OCCOc2ccccc2)cnc1-c1ccc2c(c1)OCO2 [CBK145097],107.109
24,COc1ccc2cc(C)c3n[nH]c(=O)n3c2c1 [CBK283765],79.6962
25,Cn1c(-c2ccccc2)c(C(=O)C(N)=O)c2ccccc21 [CBK288465],109.099
26,Cc1cc(CNS(=O)(=O)c2ccc(-c3ccon3)s2)no1 [CBK062276],83.4521
27,O=S(=O)(Nc1nnn[nH]1)c1ccc(Cl)c(Cl)c1 [CBK062387],71.6092

row,Structure (SMILES),% of control remaining
1,CN1CCN(C(=O)c2cccc(NS(=O)(=O)c3cc(Cl)sc3Cl)c2)CC1 [CBK038966],97.0227
2,Nc1cc2cccnc2nc1-c1cccnc1 [CBK067602],115.207
3,CCc1cc(CNC(=O)C(c2ccccc2)N2CCC(C)CC2)on1 (stereo not shown) [CBK281592],97.1687
4,O=S(=O)(NCC1CCCO1)c1ccc2oc3ccc(S(=O)(=O)NCC4CCCO4)cc3c2c1 (stereo not shown) [CBK265914],66.7557
5,N#Cc1c(NC(=O)CSc2ncnc3c2cnn3-c2ccccc2)sc2c1CCCC2 [CBK269478],92.2067
6,c1cncc(CNc2cccc(OCCOc3nccnc3N3CCNCC3)c2)c1 [CBK200008],40.7251
7,O=C(Cn1c(C2CCOCC2)cc2cccnc21)N1CCCCCC1 [CBK284674],42.915
8,Cc1cccc(C(=O)N2CCCCC2CN(C)C)c1 (stereo not shown) [CBK074171],52.5009
9,O=C(CNCc1ccc2c(c1)OCO2)NCc1ccc2c(c1)OCO2 [CBK074763],128.499
10,COC(=O)c1cn(-c2ccc(Cl)cc2)c(=O)c2ccccc12 [CBK116489],69.83
11,COc1ccc(-c2cc(C(=O)Nc3cccc(C(=O)O)c3)cnc2-c2ccc(F)cc2)cn1 [CBK038064],100.332
12,Cc1cc(C)cc(NC(=O)Cn2cnc3c(sc4ccccc43)c2=O)c1 [CBK287807],88.1512
13,Cn1cnc2cc(NC(=O)NCCN3CCCC(CO)C3)ccc21 (stereo not shown) [CBK307582],69.1831
14,CC(NC(=O)C1CCN(Cc2ccccn2)CC1)c1cccc2ccccc12 (stereo not shown) [CBK148662],59.782
15,O=C(NCc1cccs1)C1(Cc2ccccc2-c2coc3ccccc23)CCOCC1 [CBK286310],79.8057
16,COc1cnc(C(=O)NCCc2ccc(S(=O)(=O)NC(=O)NC3CCCCC3)cc2)cn1 [CBK011761],74.1167
17,O=C(Nc1cc(Cl)ccc1O)c1ccc(C(=O)Nc2cc(Cl)ccc2O)cc1 [CBK266784],101.652
18,CC1(C)NC(=O)N(CC(O)CN(c2cc(Cl)ccc2Cl)S(=O)(=O)c2ccccc2)C1=O (stereo not shown) [CBK033672],100.65
19,Cn1cc(NC(=O)c2ccc(CN3CCCC3=O)cc2)cn1 [CBK306322],35.6106
20,CC(C)(C)OC(=O)N1CCN(Cc2ccc(N)c3ccccc23)CC1 [CBK084530],93.9482
21,O=C(NCCSCc1c(F)cccc1Cl)Nc1cccc(Cl)c1 [CBK268574],71.9763
22,Cc1ccc(CSc2cnc(C(C)(C)C)nc2)cc1 [CBK019832],52.8407
23,CC1CCN(S(=O)(=O)c2cc(S(=O)(=O)N3CCC(C)CC3)c3cccc4c3c2NC4=O)CC1 [CBK263716],95.5255
24,CC(C)c1cc(C(=O)N2CCNC(c3ccccc3)C2)nc2ncnn12 (stereo not shown) [CBK306533],69.6057
25,COc1ccc(C(=O)Nc2c(Cl)ccc3nsnc23)cc1 [CBK270252],106.67
